About 2,200 (0.71%) of roughly 310,000 compounds showed an effect of 50% or more. Effects have a minus sign here. This is one part of the list.
Target: human ether-à-go-go-related gene (hERG) potassium channel (human, UniProt Q12809)
Experiment: primary screen, population patch clamp on CHO cells stably expressing hERG

Chain of human ether-à-go-go-related gene (hERG) potassium channel (Q12809 whole entry, looked up): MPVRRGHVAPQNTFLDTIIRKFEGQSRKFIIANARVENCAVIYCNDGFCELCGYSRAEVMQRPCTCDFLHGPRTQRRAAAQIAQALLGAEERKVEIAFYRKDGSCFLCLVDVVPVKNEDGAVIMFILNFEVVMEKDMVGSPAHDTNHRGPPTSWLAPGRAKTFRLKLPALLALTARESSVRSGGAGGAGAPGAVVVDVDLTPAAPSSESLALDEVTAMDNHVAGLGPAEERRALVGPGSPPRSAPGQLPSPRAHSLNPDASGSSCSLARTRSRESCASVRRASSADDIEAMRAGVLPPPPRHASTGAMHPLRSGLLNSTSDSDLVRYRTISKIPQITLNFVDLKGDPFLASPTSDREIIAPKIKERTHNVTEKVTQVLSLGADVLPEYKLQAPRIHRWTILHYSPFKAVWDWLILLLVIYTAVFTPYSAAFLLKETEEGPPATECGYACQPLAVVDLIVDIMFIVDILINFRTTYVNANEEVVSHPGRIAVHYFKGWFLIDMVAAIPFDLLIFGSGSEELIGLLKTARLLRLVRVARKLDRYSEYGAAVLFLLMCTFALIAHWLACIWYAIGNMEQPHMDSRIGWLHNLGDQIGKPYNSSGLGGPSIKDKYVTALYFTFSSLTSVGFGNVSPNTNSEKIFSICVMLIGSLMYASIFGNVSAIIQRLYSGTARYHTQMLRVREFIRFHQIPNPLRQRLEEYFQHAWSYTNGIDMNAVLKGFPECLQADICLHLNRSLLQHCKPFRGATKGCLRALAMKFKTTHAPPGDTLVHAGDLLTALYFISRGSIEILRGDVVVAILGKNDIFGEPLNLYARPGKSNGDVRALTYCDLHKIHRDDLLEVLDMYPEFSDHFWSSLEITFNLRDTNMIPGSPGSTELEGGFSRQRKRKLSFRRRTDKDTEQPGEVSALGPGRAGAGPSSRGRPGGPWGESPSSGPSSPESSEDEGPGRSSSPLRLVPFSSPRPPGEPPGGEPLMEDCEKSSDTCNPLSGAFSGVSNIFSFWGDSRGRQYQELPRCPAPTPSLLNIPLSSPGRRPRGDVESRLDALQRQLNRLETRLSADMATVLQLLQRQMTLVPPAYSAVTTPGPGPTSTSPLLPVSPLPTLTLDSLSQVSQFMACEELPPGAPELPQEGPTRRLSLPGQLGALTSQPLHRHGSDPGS

Compound	hERG current change (%, negative = inhibition) at 1uM
COc1ccc(CC(=O)Nc2nc(C)cs2)cc1	9.78%
COc1ccccc1N1CCN(C(=O)c2cc3c(C)nc4ccccc4c3o2)CC1	8.29%
CCC(Cc1ccccc1)NC(=O)C1CCCCC1 (stereo not shown)	3.89%
O=C1CC(c2ccco2)c2ccc3ccccc3c2N1 (stereo not shown)	-1.85%
CCOC(=O)C1=NN(c2ccccc2)C2(S1)SC(C(C)=O)=C(C)N2c1ccccc1 (stereo not shown)	10.1%
CCn1c(=O)c2c3c(sc2n2c(SCc4ccc(F)cc4)nnc12)CCCC3	-0.131%
Cc1ccc(F)c(NC(=O)c2c(-c3ccccc3)noc2C)c1	1.1%
CSc1ccc2nnc(-c3cccc(F)c3)n2n1	-4.53%
Cc1ccc(N(CC(=O)N2CCc3ccccc32)C2=NC(=O)CS2)cc1	13.9%
CC12CCC(=O)N1C(C(=O)Nc1nc(-c3cc(F)ccc3F)cs1)CS2 (stereo not shown)	6.92%
Cc1nc(Cl)c(C(=O)NCc2ccccc2)c(C)c1[N+](=O)[O-]	7.31%
Cc1ccc(C)c(S(=O)(=O)C(C#N)c2nc3ccccc3nc2N2CCCC2)c1 (stereo not shown)	2.59%
CSc1nc2c(c(=O)[nH]1)C(c1cccc(Cl)c1)CC(=O)N2 (stereo not shown)	6.55%
COc1ccc(/C=N/NC(=O)CNS(=O)(=O)c2ccc(C)cc2)cc1	15%
COc1ccccc1CNC(=O)Cn1ccsc1=N.Cl	4.74%
Cc1ccc(C(=O)c2coc3ccc(OCC(=O)O)cc23)cc1	6.79%
CCCCc1cc(=O)oc2cc(OCc3cc(OC)c(OC)c(OC)c3)c(Cl)cc12	18.1%
CCn1c(CCCOc2ccc(Cl)cc2Cl)n[nH]c1=S	9.72%
CC(C)OCC(O)CSc1ccccn1 (stereo not shown)	-6.78%
CCOC(=O)c1ccc2nc(C)c3c(c2c1)OC(C)C3 (stereo not shown)	-6.37%
Cc1ccccc1NC(=O)C(NC1CCCCC1)C(C)C (stereo not shown)	5.28%
O=C(Cn1cccc1C(=O)c1ccccc1)NCc1ccccc1Cl	13.7%
c1ccc(-c2nc3ccccc3nc2N2CCOCC2)cc1	-10.6%

Compound	hERG current change (%, negative = inhibition) at 1uM
Cc1ccccc1CC1(CO)CCCN(Cc2ccccc2Cl)C1 (stereo not shown)	6.77%
NC(=O)CSc1nnc(NC(=O)c2cccc(S(=O)(=O)N3CCCCC3)c2)s1	19.1%
Cc1noc(C)c1COc1ccccc1C(=O)NCCOc1ccccc1F	19.8%
CN=C1SC(CC(=O)Nc2ccc(C(C)=O)cc2)C(=O)N1C (stereo not shown)	-6.31%
CCOc1ccc(C2C(C(=O)OC)=C(C)N=C3SCCC(=O)N32)cc1OCC (stereo not shown)	9.53%
O=C(Cc1cccc2ccccc12)N/N=C/c1ccc(OC(=O)/C=C/c2ccco2)cc1	8.69%
Cc1cccc(-n2c(O)c(C=NC3CCS(=O)(=O)C3)c3ccccc3c2=O)c1 (stereo not shown)	5.75%
O=C(NCc1ccccc1Br)C1CCCO1 (stereo not shown)	22.3%
CCCn1c(C(C)Nc2nc(-c3ccc(Cl)c([N+](=O)[O-])c3)cs2)nc2ccccc21 (stereo not shown)	16.1%
Cc1ccc(-n2nc(C)c3c(C(=O)OCC(=O)N(C)C4CCS(=O)(=O)C4)cc(-c4ccccc4)nc32)cc1 (stereo not shown)	13.6%
COc1ccc(NC(=O)CSC2=C(C#N)C(c3ccco3)C3=C(CCCC3=O)N2)c(OC)c1 (stereo not shown)	-6.62%
CC(C)NC(=O)c1nc2c(nnn2Cc2cccc(Cl)c2)c(=O)[nH]1	15.2%
COc1cc(N/C(=N/S(=O)(=O)c2ccccc2)c2ccccc2)ncn1	12.2%
O=C(CNC(=O)c1ccc(Br)o1)Nc1ncccc1O	12.7%
COc1ccc(-c2csc(Cc3nnc(N4CCOCC4)n3-c3ccccc3)n2)cc1	14.8%
COc1ccc2c(c1)C(c1ccccc1)=NNC(c1ccco1)=N2	0.252%
O=S(=O)(NC1CCCC1)c1ccc(S(=O)(=O)N2CCN(c3ccccc3)CC2)cc1	-2.62%
COc1cccc(NC(=O)C2CC2)c1	5.97%
CCN1CCN=C1Nc1ccccc1	11.1%
CN(C)C(CNC(=O)CCNC(=O)c1ccccc1Cl)c1ccco1 (stereo not shown)	6.07%
CCOc1ccc(CN(C)CC(=O)Nc2cc(C)c(C)cc2[N+](=O)[O-])cc1.CN(C)C=O	14.1%
CCC1CCC(N2CCN(c3cccc(OC)c3)CC2)CC1 (stereo not shown)	8.18%
CCn1c(=O)c2ccccc2n(CC(=O)N2CCCc3ccccc32)c1=O	9.8%

Compound	hERG current change (%, negative = inhibition) at 1uM
Nc1nc(SCC(=O)Nc2ccc(Cl)cc2C(F)(F)F)n[nH]1	13.2%
CC(=O)C1=C(O)C(=O)OC1c1ccc(Cl)cc1 (stereo not shown)	11.9%
O=C(CSc1cccc2cccc(Cl)c12)NC1=NCCS1	2.37%
CCN1C(=O)C(NC(C)=O)c2cc(OC)ccc21 (stereo not shown)	6.3%
CCOC(=O)c1sc(N(C)C)nc1-c1ccccc1	9.11%
CC(/C=C/c1ccc2c(c1)OCO2)=N\NC(=O)c1ccccc1	11.9%
COc1ccc(CN(Cc2cc3cccc(C)c3n3nnnc23)C(=O)N2CCOCC2)cc1	21.8%
CCOC(=O)C1CCN(C(c2cccs2)c2sc3nc(C)nn3c2O)CC1 (stereo not shown)	3.92%
CCC(=O)Nc1ccc(N2CCOCC2)c(S(=O)(=O)Nc2ccc(OC)cc2)c1	7.08%
CCN1CCN(CCc2nc3cc([N+](=O)[O-])ccc3n2C)CC1	-1.88%
CCOc1ccc(OCC)c(NC(=O)Cn2cccc2)c1	3.15%
CN(CC(=O)Nc1cccc(F)c1)C(=O)c1cc(-c2ccccc2)nc2ccccc12	20.8%
Cc1cccc(C)c1OCC(=O)Nc1ccccc1C(F)(F)F	12.6%
O=C(O)c1ccc(S(=O)(=O)N2CCSCC2)cc1	19.9%
Cc1ccc(C(=O)Nc2ccc3ccccc3n2)cc1	-4.83%
Cc1onc(-c2ccccc2)c1C(=O)OCC(=O)N1CCN(c2ccccc2)CC1	-2.51%
CCC(=O)OC1(c2ccccc2)C(C)CN(C)CC1C.Cl (stereo not shown)	8.82%
CC1(C)CC(NC(=O)c2cccc(F)c2)CC(C)(C)N1	18.1%
Cc1cc(C)n(C(=O)COc2ccccc2[N+](=O)[O-])n1	8.89%
O=c1c2ccccc2nnn1CSc1nnc2ccccn12	6.78%
CCOCCCNC(=O)C1c2ccccc2C(=O)N2CCc3ccccc3C12 (stereo not shown)	5.53%
C[n+]1ccc(-c2ccncc2)cc1.[I-]	14.5%
COc1ccccc1CNC(c1ccccc1)c1ccccc1	9.08%

Compound	hERG current change (%, negative = inhibition) at 1uM
O=C(O)c1ccccc1N=Cc1c(O)n(-c2nccs2)c(=O)c2ccccc12	13.1%
COC(=O)[C@H](Cc1ccccc1)NC(=O)Nc1ccc(C)cc1	10.5%
Cc1cc(C)c(NC(=O)C2CCN(c3cnccn3)CC2)c(C)c1	11.2%
CCN1C(=O)[C@H]2[C@@H](c3ccc(-c4ccc(OC)cc4)cc3)N3CCCC[C@@]3(C(=O)OC)[C@H]2C1=O.O=C(O)C(F)(F)F	3.6%
COc1ccc(C)cc1NC(=O)NNS(=O)(=O)c1ccc(NC(C)=O)cc1	9.8%
O=C(NC1CCN(Cc2ccccc2)CC1)c1cccc(Br)c1	-20%
COc1ccc(CN2CCCC(CNC(=O)c3ccc(F)cc3)C2)cc1OC (stereo not shown)	-54.3%
O=[N+]([O-])c1ccc2c(c1)C=C1CCCCC1(N1CCCCC1)O2 (stereo not shown)	7.3%
O=C(c1cc(-c2ccccc2)n[nH]1)N1CCN(S(=O)(=O)c2ccccc2)CC1	1.72%
CCOC(=O)c1ccccc1OCc1cc(/C=N/NC(=O)c2cccnc2)ccc1OC	11.6%
CCCCn1c(NCc2ccccc2O)nc2ccccc21	13.8%
COc1ccc(-c2nc(-c3cccnc3)no2)cc1OC	11.4%
O=C(CSc1nc(C(F)(F)F)cc(=O)[nH]1)Nc1cccc2ccccc12	-11%
Fc1cc(F)cc(NC(=S)Nc2ccccc2N2CCOCC2)c1	1.78%
Cc1cccc(-c2nc(N)nc(N)n2)c1	14.2%
O=S(=O)(NCc1ccccc1)c1cccc2nonc12	0.358%
COC(=O)CSc1nnc(-c2cccnc2)n1-c1cc(OC)cc(OC)c1	-12.6%
Cc1cccc2sc(NNC(=O)c3ccc(S(=O)(=O)N4CCc5ccccc5C4)cc3)nc12	17.6%
O=C1CC(c2ccccc2)n2nc(NC(=O)c3ccccc3)nc2N1 (stereo not shown)	1.42%
Cc1cc2c(cc1C)CSC(c1ccc3ccccc3c1O)SC2	12.8%
CCC1CCCCN1CC(C)(C)NS(=O)(=O)c1ccccc1 (stereo not shown)	2.34%
CCOC(=O)c1ccc(NC(=O)CSc2ccc(-c3cccnc3)nn2)cc1	0.928%

Reference: article PMC4336329 (PLoS ONE, 2015)
